Results reported in a collection of fitness landscapes (doi:10.1126/science.1257360).
The list shows a part of the results.

B1: PhoQ; a variant is named by its letters at X, in order, P23837 (parent)
chain: MKKLLRLFFPLSLRVRFLLATAAVVLVLSLAYGMVALIGYSVSFDKTTFRLLRGESNLFYTLAKWENNKLHVELPENIDKQSPTMTLIYDENGQLLWAQRDVPWLMKMIQPDWLKSNGFHEIEADVNDTSLLLSGDHSIQQQLQEVREDDDDAEMTHSVAVNVYPATSRMPKLTIVVVDTIPVELKSSYMVWSWFIYVLSANLLLVIPLLWVAAWWSLRPIEALAKEVRELEEHNRELLNPATTRELTSLVRNLNRLLKSERERYDKYRTTLTDLTHSLKTPLXXLQXXLRSLRSEKMSVSDAEPVMLEQISRISQQIGYYLHRASMRGGTLLSRELHPVAPLLDNLTSALNKVYQRKGVNISLDISPEISFVGEQNDFVEVMGNVLDNACKYCLEFVEISARQTDEHLYIVVEDDGPGIPLSKREVIFDRGQRVDTLRPGQGVGLAVAREITEQYEGKIVAGESMLGGARMEVIFGRQHSAPKDE

Variants of: B1
Test: enrichment ratio after two sorts for PhoP signalling (ratio (wild type AVST 3.29)); higher = more functional
Details: with PhoP (E. coli)

HNTW and INQA cannot be ordered by enrichment ratio: ≤ 0.25 for the first, ≤ 0.25 for the second.

First: HVLS
Second: TASV
The enrichment ratio of the first is lower: ≤ 0.25 for the first, 17.9 for the second.

FQTY and YQCC cannot be ordered by enrichment ratio: ≤ 0.25 for the first, ≤ 0.25 for the second.

FGKT and VEYT cannot be ordered by enrichment ratio: ≤ 0.25 for the first, ≤ 0.25 for the second.

IQGY and ILDK cannot be ordered by enrichment ratio: ≤ 0.25 for the first, ≤ 0.25 for the second.

FDTF and GYTP cannot be ordered by enrichment ratio: ≤ 0.25 for the first, ≤ 0.25 for the second.

HLQG and GRAW cannot be ordered by enrichment ratio: ≤ 0.25 for the first, ≤ 0.25 for the second.

IMKG and FTCW cannot be ordered by enrichment ratio: ≤ 0.25 for the first, ≤ 0.25 for the second.

MRLG and YCNI cannot be ordered by enrichment ratio: ≤ 0.25 for the first, ≤ 0.25 for the second.

YYVI and RRCW cannot be ordered by enrichment ratio: ≤ 0.25 for the first, ≤ 0.25 for the second.

PILV and GRVK cannot be ordered by enrichment ratio: ≤ 0.25 for the first, ≤ 0.25 for the second.

KGGC and GEHI cannot be ordered by enrichment ratio: ≤ 0.25 for the first, ≤ 0.25 for the second.

KWAV and DDIH cannot be ordered by enrichment ratio: ≤ 0.25 for the first, ≤ 0.25 for the second.

LMDA and SPTS cannot be ordered by enrichment ratio: ≤ 0.25 for the first, ≤ 0.25 for the second.

MYLT and QGQW cannot be ordered by enrichment ratio: ≤ 0.25 for the first, ≤ 0.25 for the second.

Compared with MELL, TWWT is lower in enrichment ratio: 3.52 for the first, ≤ 0.25 for the second.

LGSW and YLRN cannot be ordered by enrichment ratio: ≤ 0.25 for the first, ≤ 0.25 for the second.

MEPC and FSKP cannot be ordered by enrichment ratio: ≤ 0.25 for the first, ≤ 0.25 for the second.

TDYP and GWVG cannot be ordered by enrichment ratio: ≤ 0.25 for the first, ≤ 0.25 for the second.

NPWC and YIPQ cannot be ordered by enrichment ratio: ≤ 0.25 for the first, ≤ 0.25 for the second.

VSGE and PRQF cannot be ordered by enrichment ratio: ≤ 0.25 for the first, ≤ 0.25 for the second.

EDFT and MWAF cannot be ordered by enrichment ratio: ≤ 0.25 for the first, ≤ 0.25 for the second.

HDPC and FNPQ cannot be ordered by enrichment ratio: ≤ 0.25 for the first, ≤ 0.25 for the second.

VPYW and QYMD cannot be ordered by enrichment ratio: ≤ 0.25 for the first, ≤ 0.25 for the second.

EAIN and PIDG cannot be ordered by enrichment ratio: ≤ 0.25 for the first, ≤ 0.25 for the second.

SPPI and YFAI cannot be ordered by enrichment ratio: ≤ 0.25 for the first, ≤ 0.25 for the second.

NCAI and NAAW cannot be ordered by enrichment ratio: ≤ 0.25 for the first, ≤ 0.25 for the second.

RDAN and ASPQ cannot be ordered by enrichment ratio: ≤ 0.25 for the first, ≤ 0.25 for the second.

Compared with AYII, IRVH is lower in enrichment ratio: 0.326 for the first, ≤ 0.25 for the second.

NCKY and DSDG cannot be ordered by enrichment ratio: ≤ 0.25 for the first, ≤ 0.25 for the second.

THIV and ASKC cannot be ordered by enrichment ratio: ≤ 0.25 for the first, ≤ 0.25 for the second.

HPKS and SPGI cannot be ordered by enrichment ratio: ≤ 0.25 for the first, ≤ 0.25 for the second.

WANK and GTMS cannot be ordered by enrichment ratio: ≤ 0.25 for the first, ≤ 0.25 for the second.

METF and ENMA cannot be ordered by enrichment ratio: ≤ 0.25 for the first, ≤ 0.25 for the second.

YFQH and DSEF cannot be ordered by enrichment ratio: ≤ 0.25 for the first, ≤ 0.25 for the second.

VESH and MFTV cannot be ordered by enrichment ratio: ≤ 0.25 for the first, ≤ 0.25 for the second.

RIMT and RFFF cannot be ordered by enrichment ratio: ≤ 0.25 for the first, ≤ 0.25 for the second.

KINF and SGDW cannot be ordered by enrichment ratio: ≤ 0.25 for the first, ≤ 0.25 for the second.

Compared with NPWW, TKMV is higher in enrichment ratio: ≤ 0.25 for the first, 10.5 for the second.

VVTA and MLEK cannot be ordered by enrichment ratio: ≤ 0.25 for the first, ≤ 0.25 for the second.

TQEN and ILIW cannot be ordered by enrichment ratio: ≤ 0.25 for the first, ≤ 0.25 for the second.

LHQY and HHFV cannot be ordered by enrichment ratio: ≤ 0.25 for the first, ≤ 0.25 for the second.

KRCL and KDEF cannot be ordered by enrichment ratio: ≤ 0.25 for the first, ≤ 0.25 for the second.

First: MKAV
Second: CIIF
The enrichment ratio of the first is higher: 7.84 for the first, ≤ 0.25 for the second.

HHMS and GGMK cannot be ordered by enrichment ratio: ≤ 0.25 for the first, ≤ 0.25 for the second.

SDQC and HCCF cannot be ordered by enrichment ratio: ≤ 0.25 for the first, ≤ 0.25 for the second.

HDWK and RNCD cannot be ordered by enrichment ratio: ≤ 0.25 for the first, ≤ 0.25 for the second.

NDDN and LYMD cannot be ordered by enrichment ratio: ≤ 0.25 for the first, ≤ 0.25 for the second.

First: RTKC
Second: AYSM
The enrichment ratio of the first is lower: ≤ 0.25 for the first, 0.264 for the second.

LNDY and MNRV cannot be ordered by enrichment ratio: ≤ 0.25 for the first, ≤ 0.25 for the second.

QWVQ and IQTT cannot be ordered by enrichment ratio: ≤ 0.25 for the first, ≤ 0.25 for the second.

SCFH and NNMN cannot be ordered by enrichment ratio: ≤ 0.25 for the first, ≤ 0.25 for the second.

IAVG and LVAQ cannot be ordered by enrichment ratio: ≤ 0.25 for the first, ≤ 0.25 for the second.

TWPN and IFNV cannot be ordered by enrichment ratio: ≤ 0.25 for the first, ≤ 0.25 for the second.

Going from MYHC to TDQN, the enrichment ratio rises from ≤ 0.25 to 6.18.

HRDM and VYTI cannot be ordered by enrichment ratio: ≤ 0.25 for the first, ≤ 0.25 for the second.

ICIK and KERY cannot be ordered by enrichment ratio: ≤ 0.25 for the first, ≤ 0.25 for the second.

PKQF and DVRN cannot be ordered by enrichment ratio: ≤ 0.25 for the first, ≤ 0.25 for the second.

Compared with SCGL, SYDM is lower in enrichment ratio: 13.6 for the first, ≤ 0.25 for the second.

VIYK and LVTF cannot be ordered by enrichment ratio: ≤ 0.25 for the first, ≤ 0.25 for the second.

EVNA and LQPW cannot be ordered by enrichment ratio: ≤ 0.25 for the first, ≤ 0.25 for the second.

FGLR and LHWI cannot be ordered by enrichment ratio: ≤ 0.25 for the first, ≤ 0.25 for the second.

KRYH and DVCF cannot be ordered by enrichment ratio: ≤ 0.25 for the first, ≤ 0.25 for the second.

PNAS and ITHK cannot be ordered by enrichment ratio: ≤ 0.25 for the first, ≤ 0.25 for the second.

SILY and GLGW cannot be ordered by enrichment ratio: ≤ 0.25 for the first, ≤ 0.25 for the second.

GWID and HVGV cannot be ordered by enrichment ratio: ≤ 0.25 for the first, ≤ 0.25 for the second.

GPEY and FQCH cannot be ordered by enrichment ratio: ≤ 0.25 for the first, ≤ 0.25 for the second.

YDLK and HPNV cannot be ordered by enrichment ratio: ≤ 0.25 for the first, ≤ 0.25 for the second.

SGNC and VYFF cannot be ordered by enrichment ratio: ≤ 0.25 for the first, ≤ 0.25 for the second.

HRLY and AVIP cannot be ordered by enrichment ratio: ≤ 0.25 for the first, ≤ 0.25 for the second.

Compared with YPPE, FTMG is higher in enrichment ratio: ≤ 0.25 for the first, 4.46 for the second.

YDYL and LSDR cannot be ordered by enrichment ratio: ≤ 0.25 for the first, ≤ 0.25 for the second.

VCKF and EEDR cannot be ordered by enrichment ratio: ≤ 0.25 for the first, ≤ 0.25 for the second.

First: MFYI
Second: VTAV
The enrichment ratio of the first is lower: ≤ 0.25 for the first, 0.389 for the second.

LYLE and NDMQ cannot be ordered by enrichment ratio: ≤ 0.25 for the first, ≤ 0.25 for the second.

YETC and GVGR cannot be ordered by enrichment ratio: ≤ 0.25 for the first, ≤ 0.25 for the second.

QMLD and TLRK cannot be ordered by enrichment ratio: ≤ 0.25 for the first, ≤ 0.25 for the second.

First: TNKA
Second: YELV
The enrichment ratio of the first is lower: 2.74 for the first, 10.2 for the second.

PLQM and DFDS cannot be ordered by enrichment ratio: ≤ 0.25 for the first, ≤ 0.25 for the second.

EQSL and WQDF cannot be ordered by enrichment ratio: ≤ 0.25 for the first, ≤ 0.25 for the second.

DTTI and LIIV cannot be ordered by enrichment ratio: ≤ 0.25 for the first, ≤ 0.25 for the second.

Compared with EKIQ, TLCA is higher in enrichment ratio: ≤ 0.25 for the first, 7.2 for the second.

Going from TCTM to RWCP, the enrichment ratio falls from 21.1 to ≤ 0.25.

PGFR and FEGD cannot be ordered by enrichment ratio: ≤ 0.25 for the first, ≤ 0.25 for the second.

TMRW and LYGL cannot be ordered by enrichment ratio: ≤ 0.25 for the first, ≤ 0.25 for the second.

GDSN and NNPE cannot be ordered by enrichment ratio: ≤ 0.25 for the first, ≤ 0.25 for the second.

AQMD and RQTG cannot be ordered by enrichment ratio: ≤ 0.25 for the first, ≤ 0.25 for the second.

HMTD and PAAT cannot be ordered by enrichment ratio: ≤ 0.25 for the first, ≤ 0.25 for the second.

LNCR and PCSW cannot be ordered by enrichment ratio: ≤ 0.25 for the first, ≤ 0.25 for the second.

HQKS and QPLE cannot be ordered by enrichment ratio: ≤ 0.25 for the first, ≤ 0.25 for the second.

Compared with PISR, NETV is higher in enrichment ratio: ≤ 0.25 for the first, 8.86 for the second.

MRTD and LKAQ cannot be ordered by enrichment ratio: ≤ 0.25 for the first, ≤ 0.25 for the second.

WFCH and TKFR cannot be ordered by enrichment ratio: ≤ 0.25 for the first, ≤ 0.25 for the second.

Compared with FQNA, SNTF is higher in enrichment ratio: ≤ 0.25 for the first, 12.1 for the second.

EAPM and QIRV cannot be ordered by enrichment ratio: ≤ 0.25 for the first, ≤ 0.25 for the second.

PQSY and GSHE cannot be ordered by enrichment ratio: ≤ 0.25 for the first, ≤ 0.25 for the second.

KFPW and FEGM cannot be ordered by enrichment ratio: ≤ 0.25 for the first, ≤ 0.25 for the second.

In the case of GLQV, the enrichment ratio is reported as ≤ 0.25.
